In PubChem BioAssay AID588591 (National Center for Advancing Translational Sciences (NCATS), 2011):
Screen size: about 390,000 compounds; about 4,700 (1.2%) were called active. Inconclusive results, whose numbers are uncertain, are shown with a selection of clear calls. Calls come from the whole dose curve; as a rule, active = well fitted inhibition curve with a large enough effect; inconclusive = small, poorly fitted or top-dose-only effect, or another doubt; inactive = no such curve, though single readings can be large or run the other way. Potencies beside an inconclusive call are fits to weak or partial responses and may not hold up.
Potency is the fitted concentration of half-maximal effect; tags give direction and shape of the fitted curve.

What follows are compounds tested against DNA polymerase eta (Homo sapiens) (UniProt Q9Y253) (assay: qHTS for Inhibitors of Polymerase Eta). Conditions: recombinant Pol eta, fluorescent DNA replication assay; series mostly up to 114 µM.
Chain of UniProt Q9Y253 (Q9Y253 whole entry, looked up): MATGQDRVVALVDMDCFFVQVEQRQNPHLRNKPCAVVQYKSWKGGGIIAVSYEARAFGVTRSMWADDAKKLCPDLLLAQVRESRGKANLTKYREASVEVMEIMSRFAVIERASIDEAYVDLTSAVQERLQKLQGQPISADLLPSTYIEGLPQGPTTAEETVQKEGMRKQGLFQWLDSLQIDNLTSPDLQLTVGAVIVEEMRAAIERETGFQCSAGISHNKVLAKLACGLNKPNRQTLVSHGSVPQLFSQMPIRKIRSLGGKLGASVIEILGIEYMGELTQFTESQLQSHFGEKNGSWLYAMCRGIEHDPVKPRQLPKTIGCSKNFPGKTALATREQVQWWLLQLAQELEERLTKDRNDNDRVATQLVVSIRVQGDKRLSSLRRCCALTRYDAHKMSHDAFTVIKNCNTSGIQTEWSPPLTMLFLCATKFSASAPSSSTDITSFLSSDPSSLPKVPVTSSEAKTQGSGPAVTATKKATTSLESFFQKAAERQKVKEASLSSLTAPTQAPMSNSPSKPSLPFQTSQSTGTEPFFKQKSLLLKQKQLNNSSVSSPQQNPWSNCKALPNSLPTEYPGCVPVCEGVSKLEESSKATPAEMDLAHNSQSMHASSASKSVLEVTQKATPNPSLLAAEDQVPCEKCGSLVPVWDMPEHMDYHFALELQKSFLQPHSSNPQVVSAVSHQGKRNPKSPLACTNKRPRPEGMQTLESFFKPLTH
Outline: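 Pol eta at 10 nM preincubated with compounds 15 min at room temperature; reaction started with fluorescent substrate (50 nM final) and read kinetically at 0 and 10 min.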
With `CN(CC(=O)NCCc1ccc(Cl)cc1)S(=O)(=O)c1ccc2c(c1)c(=O)n(C)c(=O)n2C` the Potency was inconclusive: 100 µM [inhibitor, single point].
With `CC(Cc1c[nH]c2ccccc12)C(=O)NCc1ccco1` (stereo not given) the Potency was active: 20 µM.
For `Cc1cc2c(NC(=O)CC(C)(C)CC(=O)O)cccc2nn1`, the Potency was active: 28.2 µM.
In the case of `N#Cc1ccc2[nH]cc(CCO)c2c1`, the Potency was inconclusive: 79.4 µM [inhibitor, partial curve, poor fit].
`CC[C@H](C)C1NC(=O)[C@H](CC(=O)O)NC(=O)c2cc([N+](=O)[O-])cc(I)c2NCCC(C(N)=O)NC1=O` (stereo not given in full) was tested, and the Potency was active: 25.1 µM.
With `O=C(Nc1cc(Cl)cc(Cl)c1)c1ccc(Cn2c(=O)[nH]c3ccsc3c2=O)cc1` the Potency was inconclusive: 25.1 µM [inhibitor, partial curve, poor fit].
For `O=C(Cn1nc(C(=O)O)c2ccccc2c1=O)Nc1cc(S(=O)(=O)N2CCOCC2)ccc1Cl`, the Potency was “inactive”.
With `COc1cccc(-c2cc(C(F)(F)F)n3ncc(C(=O)NCC4CCCO4)c3n2)c1` (stereo not given) the Potency was inconclusive: 22.4 µM [inhibitor, single point].
For `CC(C)CCn1c(SCC(=O)N2CC(=O)Nc3ccccc32)nc2scc(-c3cccs3)c2c1=O`, the Potency was inconclusive: 14.1 µM [inhibitor, partial curve].
`O=C1CC(c2nc(-c3ccccc3)no2)CN1c1ccc2c(c1)OCCO2` (stereo not given) was tested, and the Potency was “inactive”.
With `CCN(CC)C(=O)C1CCN(C(=O)c2oc3ccc(C)cc3c2C)CC1` the Potency was inconclusive: 79.4 µM [inhibitor, partial curve, poor fit].
`Cn1cnnc1Sc1ccc(/C=C/C(=O)c2ccc(O)cc2)cc1[N+](=O)[O-]` was tested, and the Potency was active: 50.1 µM.
`O=C(O)/C(=C\c1cccc(F)c1)c1ccc(S(=O)(=O)N2CCCC2)s1` was tested, and the Potency was inconclusive: 22.4 µM [inhibitor, partial curve, poor fit].
`Cc1cccc(OCC(=O)NCc2ccccc2)c1` was tested, and the Potency was inconclusive: 39.8 µM [inhibitor, single point].
In the case of `COc1ccc(-c2cc(C(F)(F)F)nc(SCCC(=O)NCc3ccco3)n2)cc1`, the Potency was inconclusive: 28.2 µM [inhibitor, single point].
With `COc1ccc(Cl)cc1N1C(=O)[C@@H]2C(c3cccc(OC)c3OC)=NO[C@@H]2C1=O` the Potency was “inactive”.
With `CC(=O)Nc1ccc(C(=O)/C=C/c2ccco2)cc1` the Potency was active: 25.1 µM.
`Clc1ccccc1N=C1NN=C(c2cccs2)CS1` was tested, and the Potency was inconclusive: 100 µM [inhibitor, partial curve, poor fit].
`CCc1ccc(NS(=O)(=O)c2ccc3[nH]cc(C(=O)N4CCCCC4)c(=O)c3c2)cc1` was tested, and the Potency was inconclusive: 15.8 µM [inhibitor, partial curve, poor fit].
With `CC(=O)c1c(C)[nH]c(C(=O)CSc2nc3ccc(C)cc3[nH]2)c1C` the Potency was inconclusive: 31.6 µM [inhibitor, single point].
With `CCCCn1c(SCC(=O)NCc2ccccc2)nc2ccc(N3CCOCC3)cc2c1=O` the Potency was inconclusive: 89.1 µM [inhibitor, single point].
`Cc1ccccc1N(CC(=O)NC1CCCC1)C(=O)c1csnn1` was tested, and the Potency was “inactive”.
In the case of `Cc1ccc(NC(=O)c2c(C(F)(F)F)nn(C)c2SCc2cccc(C(F)(F)F)c2)cc1C`, the Potency was inconclusive: 11.2 µM [inhibitor, full curve, poor fit].
For `CC1C(=O)N(Cc2cn(Cc3ccco3)nn2)CCS(=O)(=O)N1Cc1ccc(-c2ccc(F)nc2)cc1` (stereo not given), the Potency was inconclusive: 31.6 µM [inhibitor, partial curve, poor fit].
With `CC(=O)Nc1ccc(Nc2nnc(-c3ccc(C)c(S(N)(=O)=O)c3)c3ccccc23)cc1` the Potency was inconclusive: 39.8 µM [inhibitor, partial curve, poor fit].
For `O=C(CSc1nc(-c2ccc(F)cc2)nc2c1Cc1ccccc1O2)Nc1ccc(C(=O)O)cc1`, the Potency was inconclusive: 8.91 µM [inhibitor, full curve].
For `CCc1nnc(NC(=O)c2cccc(S(=O)(=O)N3CCN(C)CC3)c2)s1`, the Potency was inconclusive: 39.8 µM [inhibitor, single point].
`O=c1c2ccccc2sc2nc(C3CCCCC3)n(Cc3ccco3)c(=O)c12` was tested, and the Potency was inconclusive: 79.4 µM [inhibitor, partial curve].
In the case of `CCOc1cc(/C=C2\SC(=S)N(NS(=O)(=O)c3ccc(C)cc3)C2=O)ccc1O`, the Potency was inconclusive: 56.2 µM [inhibitor, partial curve, poor fit].
In the case of `O=C(CCC1N=C2c3ccccc3N=C(SCC(=O)NCc3ccco3)N2C1=O)NCc1ccco1` (stereo not given), the Potency was inconclusive: 56.2 µM [inhibitor, partial curve, poor fit].
`CCCN(CC(=O)Nc1ccccc1C)C(=O)CCl` was tested, and the Potency was “inactive”.
For `Cc1ccc(-c2c(C#N)c(N)nc3c2CCCCC3)o1`, the Potency was “inactive”.
In the case of `Cc1cc(C)c(S(=O)(=O)/N=C2\C=CC(=O)C(Cl)=C2)c(C)c1`, the Potency was inconclusive: 56.2 µM [inhibitor, partial curve, poor fit].
With `CCOC(=O)C1CCCN(C(=O)CCCOc2cc(=O)n(C)c3ccccc23)C1` (stereo not given) the Potency was “inactive”.
For `O=C(N/N=C/c1c(O)ccc2ccccc12)c1ccc(Br)o1`, the Potency was inconclusive: 35.5 µM [inhibitor, partial curve, poor fit].
In the case of `CCOC(=O)C12CC1/C(=N/O)c1ccccc1O2` (stereo not given), the Potency was “inactive”.
With `COc1ccc(N2CCN(C(=O)CSc3nc4cc(OC)c(OC)cc4cc3C#N)CC2)cc1` the Potency was inconclusive: 14.1 µM [inhibitor, full curve, poor fit].
With `COc1ccc(/C=N/NC(=O)c2nc(Cl)c(Cl)c(N)c2Cl)cc1COc1ccccc1F` the Potency was inconclusive: 15.8 µM [inhibitor, partial curve].
`CC(=O)NC1C(=O)N(CCN2CCOCC2)c2ccc(Cl)cc21` (stereo not given) was tested, and the Potency was inconclusive: 89.1 µM [inhibitor, single point].
`CCC1CCCCN1CCNS(=O)(=O)c1ccc2c(c1)oc(=O)n2C` (stereo not given) was tested, and the Potency was inconclusive: 35.5 µM [inhibitor, partial curve, poor fit].
